# Measured values from the supplement of paper PMC8728848.
# The other results are listed elsewhere or left out.
# What was measured:
# Assay in all cases: glycan array binding signal (z-score within array); higher = stronger binding
# Details in all cases: glycan notation: IUPAC condensed, linker removed
# [1] = target: Man(a1-3)[Man(a1-6)]Man(a1-6)[Man(a1-3)]Man
# Method in brief: (§1)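 Glycan array data were curated from 3228 arrays in the Consortium for Functional Glycomics database and kept only where the protein sequence was available. Glycan names were converted to IUPAC-condensed notation, and columns mapping to the same glycan were averaged. The binding signal is a within-array Z-score, averaged across arrays of the same protein sequence at different concentrations or buffers and across linkers. Negative Z-scores can be read as non-binding.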
# [2] = target: Man(a1-3)[Man(a1-6)]Man(a1-6)[Man(a1-3)]Man(b1-4)GlcNAc(b1-4)GlcNAc
# Method in brief: as §1
# [3] = target: Man(a1-3)[Man(a1-6)]Man(b1-4)GlcNAc(b1-4)GlcNAc
# Method in brief: as §1
# [4] = target: Man(a1-3)[Man(a1-6)]Man(b1-4)GlcNAc(b1-4)[Fuc(a1-6)]GlcNAc
# Method in brief: as §1
# Man(a1-6)Man = target: Man(a1-6)Man
# Method in brief: as §1
# Man(b1-4)GlcNAc = target: Man(b1-4)GlcNAc
# Method in brief: as §1
# MurNAc(b1-4)GlcNAc = target: MurNAc(b1-4)GlcNAc
# Method in brief: as §1
# Neu5Ac(a2-3)Gal = target: Neu5Ac(a2-3)Gal
# Method in brief: as §1
# [5] = target: Neu5Ac(a2-3)Gal(b1-3)GalNAc
# Method in brief: as §1
# [6] = target: Neu5Ac(a2-3)Gal(b1-3)GalNAc(b1-3)Gal(a1-4)Gal(b1-4)Glc
# Method in brief: as §1
# [7] = target: Neu5Ac(a2-3)Gal(b1-3)GalNAc(b1-4)[Neu5Ac(a2-3)]Gal(b1-4)Glc
# Method in brief: as §1
# [8] = target: Neu5Ac(a2-3)Gal(b1-3)GalNAc(b1-4)[Neu5Ac(a2-8)Neu5Ac(a2-3)]Gal(b1-4)Glc
# Method in brief: as §1
# [9] = target: Neu5Ac(a2-3)Gal(b1-3)GalNAc6S
# Method in brief: as §1
# [10] = target: Neu5Ac(a2-3)Gal(b1-3)GlcNAc
# Method in brief: as §1
# [11] = target: Neu5Ac(a2-3)Gal(b1-3)GlcNAc(b1-2)Man
# Method in brief: as §1
# [12] = target: Neu5Ac(a2-3)Gal(b1-3)GlcNAc(b1-2)Man(a1-3)[GlcNAc(b1-4)][Neu5Ac(a2-3)Gal(b1-3)GlcNAc(b1-2)Man(a1-6)]Man(b1-4)GlcNAc(b1-4)GlcNAc
# Method in brief: as §1
# [13] = target: Neu5Ac(a2-3)Gal(b1-3)GlcNAc(b1-2)Man(a1-3)[Neu5Ac(a2-3)Gal(b1-3)GlcNAc(b1-2)Man(a1-6)]Man(b1-4)GlcNAc(b1-4)GlcNAc
# Method in brief: as §1
# [14] = target: Neu5Ac(a2-3)Gal(b1-3)GlcNAc(b1-3)Gal(b1-3)GlcNAc
# Method in brief: as §1
# [15] = target: Neu5Ac(a2-3)Gal(b1-3)GlcNAc(b1-3)Gal(b1-4)GlcNAc
# Method in brief: as §1
# [16] = target: Neu5Ac(a2-3)Gal(b1-3)GlcNAc(b1-3)GalNAc
# Method in brief: as §1
# [17] = target: Neu5Ac(a2-3)Gal(b1-3)GlcNAc(b1-4)Gal(b1-4)Glc
# Method in brief: as §1
# [18] = target: Neu5Ac(a2-3)Gal(b1-3)GlcNAc(b1-6)GalNAc
# Method in brief: as §1
# [19] = target: Neu5Ac(a2-3)Gal(b1-3)GlcNAc6S
# Method in brief: as §1
# [20] = target: Neu5Ac(a2-3)Gal(b1-3)[Fuc(a1-4)]GlcNAc
# Method in brief: as §1
# [21] = target: Neu5Ac(a2-3)Gal(b1-3)[Fuc(a1-4)]GlcNAc(b1-3)Gal(b1-3)[Fuc(a1-4)]GlcNAc
# Method in brief: as §1
# [22] = target: Neu5Ac(a2-3)Gal(b1-3)[Fuc(a1-4)]GlcNAc(b1-3)Gal(b1-4)[Fuc(a1-3)]GlcNAc
# Method in brief: as §1
# [23] = target: Neu5Ac(a2-3)Gal(b1-3)[GlcNAc(b1-6)]GalNAc
# Method in brief: as §1
# [24] = target: Neu5Ac(a2-3)Gal(b1-3)[Neu5Ac(a2-6)]GalNAc
# Method in brief: as §1
# [25] = target: Neu5Ac(a2-3)Gal(b1-3)[Neu5Ac(a2-6)]GlcNAc(b1-3)[Fuc(a1-3)[Gal(b1-4)]GlcNAc(b1-6)]Gal(b1-4)Glc
# Method in brief: as §1
# [26] = target: Neu5Ac(a2-3)Gal(b1-3)]Neu5Ac(a2-3)Gal(b1-4)]GlcNAc
# Method in brief: as §1
# Neu5Ac(a2-3)Gal(b1-4)Glc = target: Neu5Ac(a2-3)Gal(b1-4)Glc
# Method in brief: as §1
# [27] = target: Neu5Ac(a2-3)Gal(b1-4)GlcNAc
# Method in brief: as §1
# [28] = target: Neu5Ac(a2-3)Gal(b1-4)GlcNAc(b1-2)Man
# Method in brief: as §1
# [29] = target: Neu5Ac(a2-3)Gal(b1-4)GlcNAc(b1-2)Man(a1-3)[GlcNAc(b1-4)][Neu5Ac(a2-3)Gal(b1-4)GlcNAc(b1-2)Man(a1-6)]Man(b1-4)GlcNAc(b1-4)GlcNAc
# Method in brief: as §1
# [30] = target: Neu5Ac(a2-3)Gal(b1-4)GlcNAc(b1-2)Man(a1-3)[Neu5Ac(a2-3)Gal(b1-4)GlcNAc(b1-2)Man(a1-6)]Man(b1-4)GlcNAc(b1-4)GlcNAc
# Method in brief: as §1
# [31] = target: Neu5Ac(a2-3)Gal(b1-4)GlcNAc(b1-2)Man(a1-3)[Neu5Ac(a2-3)Gal(b1-4)GlcNAc(b1-2)Man(a1-6)]Man(b1-4)GlcNAc(b1-4)[Fuc(a1-6)]GlcNAc
# Method in brief: as §1
# [32] = target: Neu5Ac(a2-3)Gal(b1-4)GlcNAc(b1-2)Man(a1-3)[Neu5Ac(a2-6)Gal(b1-4)GlcNAc(b1-2)Man(a1-6)]Man(b1-4)GlcNAc(b1-4)GlcNAc
# Method in brief: as §1
# [33] = target: Neu5Ac(a2-3)Gal(b1-4)GlcNAc(b1-2)[Neu5Ac(a2-3)Gal(b1-4)GlcNAc(b1-4)]Man(a1-3)[GlcNAc(b1-4)][Neu5Ac(a2-3)Gal(b1-4)GlcNAc(b1-2)[Neu5Ac(a2-3)Gal(b1-4)GlcNAc(b1-6)]Man(a1-6)]Man(b1-4)GlcNAc(b1-4)GlcNAc
# Method in brief: as §1
binder,measurement,setting,value
PX14367B-bvu-516-23-516 (Bacteroides vulgatus) (protein) LDTIPTTYVDAGSVFGKTGDAEKVLNGGWNYLMETFNSYANPGYGAMLRANDAMGSDVVLNSKYGFRTHNEFSAIYGKGGTNTLSWLLAYRVINDCNGVLDNIDAAEGTQADRNRIKGQALALRGFLYLHLASCYSFAIDKDPDAVCAPIYTQSTDETIAAEGKPASSVSEVYAQSINDLEEALELIPETYVRDAKHKIDNEVVLGILSRACLYARQWEKAKTYSDKLLAKDNYLMTESEYKAGFNSVDNKEWIWGHAQTNDQSNASYQFHYLDTTTKGSYYYSFNVDPYFRDLFEDGDYRKEMLFWATDPGADVESAAYVWMRNSKFRFRDIENQLGDIVLMRVAEIYLINAEAKAHLNDPDAINKLNDLKTARGAKTIHTNLSQQDLLETIWLERRKELWGEGFSLIDIIRNQQTVVRNAYPEGPIDYIYTDENGQTHTLKKKTQGHRFFNFPDKSAFCPNSKYYLYRITDSEELANKNLYKDHPKLSIYTK,glycan array binding signal (z-score),[1],-0.226
same,glycan array binding signal (z-score),[2],-0.332
same,glycan array binding signal (z-score),[3],-0.33
same,glycan array binding signal (z-score),[4],-0.299
same,glycan array binding signal (z-score),Man(a1-6)Man,-0.278
same,glycan array binding signal (z-score),Man(b1-4)GlcNAc,-0.351
same,glycan array binding signal (z-score),MurNAc(b1-4)GlcNAc,-0.283
same,glycan array binding signal (z-score),Neu5Ac(a2-3)Gal,-0.321
same,glycan array binding signal (z-score),[5],-0.354
same,glycan array binding signal (z-score),[6],-0.352
same,glycan array binding signal (z-score),[7],-0.325
same,glycan array binding signal (z-score),[8],-0.209
same,glycan array binding signal (z-score),[9],-0.299
same,glycan array binding signal (z-score),[10],-0.261
same,glycan array binding signal (z-score),[11],-0.303
same,glycan array binding signal (z-score),[12],-0.213
same,glycan array binding signal (z-score),[13],-0.276
same,glycan array binding signal (z-score),[14],-0.309
same,glycan array binding signal (z-score),[15],-0.172
same,glycan array binding signal (z-score),[16],-0.339
same,glycan array binding signal (z-score),[17],-0.367
same,glycan array binding signal (z-score),[18],-0.346
same,glycan array binding signal (z-score),[19],-0.318
same,glycan array binding signal (z-score),[20],-0.337
same,glycan array binding signal (z-score),[21],-0.227
same,glycan array binding signal (z-score),[22],-0.243
same,glycan array binding signal (z-score),[23],-0.228
same,glycan array binding signal (z-score),[24],-0.28
same,glycan array binding signal (z-score),[25],-0.413
same,glycan array binding signal (z-score),[26],-0.157
same,glycan array binding signal (z-score),Neu5Ac(a2-3)Gal(b1-4)Glc,-0.179
same,glycan array binding signal (z-score),[27],-0.381
same,glycan array binding signal (z-score),[28],-0.297
same,glycan array binding signal (z-score),[29],-0.342
same,glycan array binding signal (z-score),[30],-0.248
same,glycan array binding signal (z-score),[31],-0.241
same,glycan array binding signal (z-score),[32],0.471
same,glycan array binding signal (z-score),[33],-0.258
